Measurements from the supplement of paper PMC10724272.

The test systems below were run with CCC(C)n1ncn(-c2ccc(N3CCN(c4ccc(OCC5COC(Cn6cncn6)(c6ccc(Cl)cc6Cl)O5)cc4)CC3)cc2)c1=O [itraconazole] (assay: CLSI broth microdilution.).
For “Candida tropicalis isolate 24 (ERG11 copies: 2, Erg11p: Y132F, S154F (homozygous))”, the MIC was 0.5 mg/L [S].
“Candida tropicalis isolate 213 (ERG11 copies: 2, Erg11p: no key change)” was tested, and the MIC was 0.12 mg/L [S].
In the case of “Candida tropicalis isolate 118 (ERG11 copies: 2, Erg11p: no key change)”, the MIC was 0.5 mg/L [S].
In the case of “Candida tropicalis isolate 158 (ERG11 copies: 2, Erg11p: no key change)”, the MIC was 0.03 mg/L [S].
With “Candida tropicalis isolate 284 (ERG11 copies: 6, Erg11p: Y132F, S154F (heterozygous))” the MIC was 1 mg/L [R].
With “Candida tropicalis isolate 373 (ERG11 copies: 2, Erg11p: no key change)” the MIC was 0.12 mg/L [S].
“Candida tropicalis isolate 261 (ERG11 copies: 8, Erg11p: Y132F, S154F (heterozygous))” gave an MIC of 0.5 mg/L [S].
With “Candida tropicalis isolate 394 (ERG11 copies: 2, Erg11p: no key change)” the MIC was 0.12 mg/L [S].
“Candida tropicalis isolate 408 (ERG11 copies: 2, Erg11p: no key change)” was tested, and the MIC was 0.5 mg/L [S].
With “Candida tropicalis isolate 289 (ERG11 copies: 2, Erg11p: no key change)” the MIC was 0.25 mg/L [S].
“Candida tropicalis isolate 342 (ERG11 copies: 2, Erg11p: no key change)” showed an MIC of 0.12 mg/L [S].
Test System “Candida tropicalis isolate 315 (ERG11 copies: 2, Erg11p: no key change)” has an MIC of 0.12 mg/L [S].
“Candida tropicalis isolate 243 (ERG11 copies: 2, Erg11p: no key change)” gave an MIC of 0.12 mg/L [S].
“Candida tropicalis isolate 51 (ERG11 copies: 2, Erg11p: no key change)” was tested, and the MIC was 0.06 mg/L [S].
Test System “Candida tropicalis isolate 160 (ERG11 copies: 2, Erg11p: no key change)” has an MIC of 0.25 mg/L [S].
In the case of “Candida tropicalis isolate 202 (ERG11 copies: 2, Erg11p: no key change)”, the MIC was 0.06 mg/L [S].
“Candida tropicalis isolate 128 (ERG11 copies: 2, Erg11p: no key change)” was tested, and the MIC was 0.06 mg/L [S].
In the case of “Candida tropicalis isolate 348 (ERG11 copies: 2, Erg11p: no key change)”, the MIC was 0.25 mg/L [S].
For “Candida tropicalis isolate 204 (ERG11 copies: 2, Erg11p: Y132F, S154F (homozygous))”, the MIC was 0.5 mg/L [S].
Work on “Candida tropicalis isolate 47 (ERG11 copies: 8, Erg11p: Y132F, S154F (heterozygous))” yielded an MIC of 1 mg/L [R].
Test System “Candida tropicalis isolate 163 (ERG11 copies: 2, Erg11p: no key change)” has an MIC of 0.12 mg/L [S].
“Candida tropicalis isolate 82 (ERG11 copies: 2, Erg11p: no key change)” showed an MIC of 0.25 mg/L [S].
Work on “Candida tropicalis isolate 139 (ERG11 copies: 2, Erg11p: no key change)” yielded an MIC of 0.25 mg/L [S].
Test System “Candida tropicalis isolate 180 (ERG11 copies: 2, Erg11p: no key change)” has an MIC of 0.015 mg/L [S].
“Candida tropicalis isolate 111 (ERG11 copies: 2, Erg11p: no key change)” showed an MIC of 0.015 mg/L [S].
In the case of “Candida tropicalis isolate 195 (ERG11 copies: 2, Erg11p: no key change)”, the MIC was 0.12 mg/L [S].
Work on “Candida tropicalis isolate 409 (ERG11 copies: 2, Erg11p: Y132F, S154F (homozygous))” yielded an MIC of 0.5 mg/L [S].
Test System “Candida tropicalis isolate 434 (ERG11 copies: 6, Erg11p: Y132F, S154F, P397S (heterozygous))” has an MIC of 0.5 mg/L [S].
“Candida tropicalis isolate 355 (ERG11 copies: 2, Erg11p: no key change)” gave an MIC of 0.25 mg/L [S].
“Candida tropicalis isolate 210 (ERG11 copies: 2, Erg11p: no key change)” showed an MIC of 0.5 mg/L [S].
For “Candida tropicalis isolate 317 (ERG11 copies: 2, Erg11p: no key change)”, the MIC was 0.12 mg/L [S].
“Candida tropicalis isolate 270 (ERG11 copies: 2, Erg11p: no key change)” showed an MIC of 0.12 mg/L [S].
Work on “Candida tropicalis isolate 267 (ERG11 copies: 2, Erg11p: no key change)” yielded an MIC of 0.06 mg/L [S].
With “Candida tropicalis isolate 100 (ERG11 copies: 2, Erg11p: no key change)” the MIC was 1 mg/L [R].
For “Candida tropicalis isolate 293 (ERG11 copies: 2, Erg11p: no key change)”, the MIC was 0.25 mg/L [S].
“Candida tropicalis isolate 126 (ERG11 copies: 2, Erg11p: no key change)” was tested, and the MIC was 0.25 mg/L [S].

What follows are test systems tested with CCCCCOc1ccc(-c2cc(-c3ccc(C(=O)N[C@H]4C[C@@H](O)[C@@H](O)NC(=O)[C@@H]5[C@@H](O)[C@@H](C)CN5C(=O)[C@H]([C@H](O)CC(N)=O)NC(=O)[C@H]([C@H](O)[C@@H](O)c5ccc(O)c(OS(=O)(=O)O)c5)NC(=O)[C@@H]5C[C@@H](O)CN5C(=O)[C@H]([C@@H](C)O)NC4=O)cc3)no2)cc1 [micafungin] (assay: CLSI broth microdilution.).
For “Candida tropicalis isolate 24 (ERG11 copies: 2, Erg11p: Y132F, S154F (homozygous))”, the MIC was 0.03 mg/L [S].
“Candida tropicalis isolate 213 (ERG11 copies: 2, Erg11p: no key change)” was tested, and the MIC was 0.015 mg/L [S].
“Candida tropicalis isolate 118 (ERG11 copies: 2, Erg11p: no key change)” was tested, and the MIC was 0.06 mg/L [S].
Test System “Candida tropicalis isolate 158 (ERG11 copies: 2, Erg11p: no key change)” has an MIC of 0.03 mg/L [S].
“Candida tropicalis isolate 284 (ERG11 copies: 6, Erg11p: Y132F, S154F (heterozygous))” gave an MIC of 0.015 mg/L [S].
In the case of “Candida tropicalis isolate 373 (ERG11 copies: 2, Erg11p: no key change)”, the MIC was 0.03 mg/L [S].
Work on “Candida tropicalis isolate 261 (ERG11 copies: 8, Erg11p: Y132F, S154F (heterozygous))” yielded an MIC of 0.03 mg/L [S].
With “Candida tropicalis isolate 394 (ERG11 copies: 2, Erg11p: no key change)” the MIC was 0.015 mg/L [S].
Test System “Candida tropicalis isolate 408 (ERG11 copies: 2, Erg11p: no key change)” has an MIC of 0.03 mg/L [S].
Work on “Candida tropicalis isolate 289 (ERG11 copies: 2, Erg11p: no key change)” yielded an MIC of 0.03 mg/L [S].
“Candida tropicalis isolate 342 (ERG11 copies: 2, Erg11p: no key change)” gave an MIC of 0.03 mg/L [S].
With “Candida tropicalis isolate 315 (ERG11 copies: 2, Erg11p: no key change)” the MIC was 0.03 mg/L [S].
“Candida tropicalis isolate 243 (ERG11 copies: 2, Erg11p: no key change)” was tested, and the MIC was 0.03 mg/L [S].
Work on “Candida tropicalis isolate 51 (ERG11 copies: 2, Erg11p: no key change)” yielded an MIC of 0.03 mg/L [S].
Work on “Candida tropicalis isolate 160 (ERG11 copies: 2, Erg11p: no key change)” yielded an MIC of 0.015 mg/L [S].
With “Candida tropicalis isolate 202 (ERG11 copies: 2, Erg11p: no key change)” the MIC was 0.015 mg/L [S].
“Candida tropicalis isolate 128 (ERG11 copies: 2, Erg11p: no key change)” was tested, and the MIC was 0.03 mg/L [S].
With “Candida tropicalis isolate 348 (ERG11 copies: 2, Erg11p: no key change)” the MIC was 0.03 mg/L [S].
For “Candida tropicalis isolate 204 (ERG11 copies: 2, Erg11p: Y132F, S154F (homozygous))”, the MIC was 0.06 mg/L [S].
“Candida tropicalis isolate 47 (ERG11 copies: 8, Erg11p: Y132F, S154F (heterozygous))” was tested, and the MIC was 0.03 mg/L [S].
In the case of “Candida tropicalis isolate 163 (ERG11 copies: 2, Erg11p: no key change)”, the MIC was 0.06 mg/L [S].
“Candida tropicalis isolate 82 (ERG11 copies: 2, Erg11p: no key change)” gave an MIC of 0.015 mg/L [S].
In the case of “Candida tropicalis isolate 139 (ERG11 copies: 2, Erg11p: no key change)”, the MIC was 0.015 mg/L [S].
With “Candida tropicalis isolate 180 (ERG11 copies: 2, Erg11p: no key change)” the MIC was 0.008 mg/L [S].
“Candida tropicalis isolate 111 (ERG11 copies: 2, Erg11p: no key change)” showed an MIC of 0.015 mg/L [S].
In the case of “Candida tropicalis isolate 195 (ERG11 copies: 2, Erg11p: no key change)”, the MIC was 0.06 mg/L [S].
“Candida tropicalis isolate 409 (ERG11 copies: 2, Erg11p: Y132F, S154F (homozygous))” gave an MIC of 0.03 mg/L [S].
Test System “Candida tropicalis isolate 434 (ERG11 copies: 6, Erg11p: Y132F, S154F, P397S (heterozygous))” has an MIC of 0.03 mg/L [S].
“Candida tropicalis isolate 355 (ERG11 copies: 2, Erg11p: no key change)” gave an MIC of 0.03 mg/L [S].
Test System “Candida tropicalis isolate 210 (ERG11 copies: 2, Erg11p: no key change)” has an MIC of 0.06 mg/L [S].
With “Candida tropicalis isolate 317 (ERG11 copies: 2, Erg11p: no key change)” the MIC was 0.03 mg/L [S].
“Candida tropicalis isolate 270 (ERG11 copies: 2, Erg11p: no key change)” gave an MIC of 0.06 mg/L [S].
“Candida tropicalis isolate 267 (ERG11 copies: 2, Erg11p: no key change)” was tested, and the MIC was 0.03 mg/L [S].
Work on “Candida tropicalis isolate 100 (ERG11 copies: 2, Erg11p: no key change)” yielded an MIC of 0.03 mg/L [S].
With “Candida tropicalis isolate 293 (ERG11 copies: 2, Erg11p: no key change)” the MIC was 0.06 mg/L [S].
With “Candida tropicalis isolate 126 (ERG11 copies: 2, Erg11p: no key change)” the MIC was 0.015 mg/L [S].

These test systems were tested with CCCCCOc1ccc(-c2ccc(-c3ccc(C(=O)N[C@H]4C[C@@H](O)[C@@H](O)NC(=O)[C@@H]5[C@@H](O)[C@@H](C)CN5C(=O)[C@H]([C@@H](C)O)NC(=O)[C@H]([C@H](O)[C@@H](O)c5ccc(O)cc5)NC(=O)[C@@H]5C[C@@H](O)CN5C(=O)[C@H]([C@@H](C)O)NC4=O)cc3)cc2)cc1 [anidulafungin] (assay: CLSI broth microdilution.).
“Candida tropicalis isolate 24 (ERG11 copies: 2, Erg11p: Y132F, S154F (homozygous))” showed an MIC of 0.25 mg/L [S].
“Candida tropicalis isolate 213 (ERG11 copies: 2, Erg11p: no key change)” was tested, and the MIC was 0.03 mg/L [S].
“Candida tropicalis isolate 118 (ERG11 copies: 2, Erg11p: no key change)” showed an MIC of 0.12 mg/L [S].
Work on “Candida tropicalis isolate 158 (ERG11 copies: 2, Erg11p: no key change)” yielded an MIC of no more than 0.015 mg/L [S].
In the case of “Candida tropicalis isolate 284 (ERG11 copies: 6, Erg11p: Y132F, S154F (heterozygous))”, the MIC was no more than 0.015 mg/L [S].
“Candida tropicalis isolate 373 (ERG11 copies: 2, Erg11p: no key change)” gave an MIC of 0.06 mg/L [S].
“Candida tropicalis isolate 261 (ERG11 copies: 8, Erg11p: Y132F, S154F (heterozygous))” was tested, and the MIC was 0.03 mg/L [S].
In the case of “Candida tropicalis isolate 394 (ERG11 copies: 2, Erg11p: no key change)”, the MIC was 0.06 mg/L [S].
Test System “Candida tropicalis isolate 408 (ERG11 copies: 2, Erg11p: no key change)” has an MIC of no more than 0.015 mg/L [S].

MIC of invasive clinical C. tropicalis isolates, CLSI broth microdilution (fluconazole 0.12-256 mg/L, up to 1,024 for the azole-resistant cluster and its neighbour group; other ranges not stated); higher = less susceptible. Call: susceptible or wild type [S] / resistant or non-wild type [R] by CLSI breakpoints or cut-offs; intermediate and dose-dependent carry no call. '<=' and '>=' at the end values are inferred; the source marks only some of them. Isolates are numbered anew.
